The target in the experiment is PP1α catalytic subunit (New England BioLabs) (UniProt P62139). Kind of experiment: SPR. On the technique in general: In SPR one partner is held on a chip, and binding of the other changes the refractive index at the surface.

Broadly, the Kd is the equilibrium constant for the complex coming apart. Lower therefore signals tighter binding. The kon is the second-order rate constant of association.

Chain of UniProt P62139 (P62139 whole entry): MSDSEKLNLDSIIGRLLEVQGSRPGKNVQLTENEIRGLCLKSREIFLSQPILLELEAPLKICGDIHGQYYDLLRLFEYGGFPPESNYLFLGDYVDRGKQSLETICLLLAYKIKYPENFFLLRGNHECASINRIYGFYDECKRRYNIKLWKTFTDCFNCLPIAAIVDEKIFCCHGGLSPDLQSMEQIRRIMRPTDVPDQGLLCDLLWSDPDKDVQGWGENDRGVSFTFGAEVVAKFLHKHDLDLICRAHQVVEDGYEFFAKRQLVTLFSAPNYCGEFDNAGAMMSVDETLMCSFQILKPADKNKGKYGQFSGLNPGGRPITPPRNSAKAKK

B1: AKAP79 […] (PP1 binding site deletion), S-tagged (domain or fragment)
chain: not shown
In the case of B1, binding was put at a Kd of 103 nM and the kon was 288000 M⁻¹ s⁻¹.

For the origin of these results see publication PMC3115558 (Biochemistry, 2011).
